In patent US20230235090A1 (HARBOUR BIOMED US, published 2023):

T1: human B7-H4 (human, UniProt Q7Z7D3 25-282)
T1 construct: whole, on cells; also called VTCN1; SK-BR-3 cell line highly expressing B7-H4
T1 sequence (looked up): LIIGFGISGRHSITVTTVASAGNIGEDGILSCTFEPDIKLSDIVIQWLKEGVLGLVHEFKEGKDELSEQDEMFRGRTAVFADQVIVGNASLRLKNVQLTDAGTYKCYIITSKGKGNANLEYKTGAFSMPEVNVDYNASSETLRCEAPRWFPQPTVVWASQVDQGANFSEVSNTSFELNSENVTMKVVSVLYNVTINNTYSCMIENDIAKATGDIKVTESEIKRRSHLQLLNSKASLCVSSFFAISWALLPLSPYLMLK


What was measured:
human B7-H4 [1] = molecular target: T1, human B7-H4; test: FACS, SK-BR-3 cells [A]
cynomolgus monkey 4-1BB = molecular target: T2, cynomolgus monkey 4-1BB (cynomolgus monkey); test: FACS, CHO-K1/cyno 4-1BB cells [A]
T2 construct: whole, on cells; also called CHO-K1-cyno 4-1BB; CHO-K1/cyno4-1BB

human B7-H4 [2] = molecular target: T1, human B7-H4; test: FACS, SK-BR-3 cells [C]

| binding result (human B7-H4 [1]) | EC50 (cynomolgus monkey 4-1BB) | Maximum MFI (cynomolgus monkey 4-1BB) | EC50 (human B7-H4 [2]) | Maximum MFI (human B7-H4 [2]) | Binder |
| --- | --- | --- | --- | --- | --- |
| binds | 0.47 nM | 25500 MFI | – | – | PR002806 (bispecific antibody, human IgG1, kappa, L234A L235A, IgG-VH tetravalent symmetric; PR001476 IgG x PR001838 VH; IgG1 (L234A, L235A, P329G)) light: EIVMTQSPATLSVSPGERATLSCRASQSISSNLGWYQQKPGQAPRLLIYGASTRATGIPARFSGSGSGTEFTLTISSLQSEDFAVYYCQQYNSWPPLTFGGGTKVEIKRTVAAPSVFIFPPSDEQLKSGTASVVCLLNNFYPREAKVQWKVDNALQSGNSQESVTEQDSKDSTYSLSSTLTLSKADYEKHKVYACEVTHQGLSSPVTKSFNRGEC heavy: QVQLVESGGGVVQPGRSLRLSCAASGFTFRSFGMHWVRQAPGKGLEWVAVISYDGSNEYYADSVKGRFIISRDNSKDTLYLQMNSLRAGDTAVYYCAKGGGLRWYFAYWGQGTLVTVSSASTKGPSVFPLAPSSKSTSGGTAALGCLVKDYFPEPVTVSWNSGALTSGVHTFPAVLQSSGLYSLSSVVTVPSSSLGTQTYICNVNHKPSNTKVDKKVEPKSCDKTHTCPPCPAPEAAGGPSVFLFPPKPKDTLMISRTPEVTCVVVDVSHEDPEVKFNWYVDGVEVHNAKTKPREEQYNSTYRVVSVLTVLHQDWLNGKEYKCKVSNKALGAPIEKTISKAKGQPREPQVYTLPPSREEMTKNQVSLTCLVKGFYPSDIAVEWESNGQPENNYKTTPPVLDSDGSFFLYSKLTVDKSRWQQGNVFSCSVMHEALHNHYTQKSLSLSPGEPKSSDKTHTPPPPPRTEVQLLESGGGLVQPGGSLRLSCAASGFTFSNYAMSWFRQPPETGLKWVSSIDGSGGDTYYADSVKGRFTISRDNSKNTLYLQMNSLRAEDTAVYYCAKEGSHGTDDSHYDVDVWGQGTTVTVSS |
| – | – | – | 0.428 nM | 33400 MFI | PR002800 (bispecific antibody, human IgG1, kappa, L234A L235A, IgG-VH: PR001476 IgG + PR001780 VH, linker H1_15-RT, human IgG1 (L234A, L235A, P329G)) polypeptide chain 1: EIVMTQSPATLSVSPGERATLSCRASQSISSNLGWYQQKPGQAPRLLIYGASTRATGIPARFSGSGSGTEFTLTISSLQSEDFAVYYCQQYNSWPPLTFGGGTKVEIKRTVAAPSVFIFPPSDEQLKSGTASVVCLLNNFYPREAKVQWKVDNALQSGNSQESVTEQDSKDSTYSLSSTLTLSKADYEKHKVYACEVTHQGLSSPVTKSFNRGEC polypeptide chain 2: QVQLVESGGGVVQPGRSLRLSCAASGFTFRSFGMHWVRQAPGKGLEWVAVISYDGSNEYYADSVKGRFIISRDNSKDTLYLQMNSLRAGDTAVYYCAKGGGLRWYFAYWGQGTLVTVSSASTKGPSVFPLAPSSKSTSGGTAALGCLVKDYFPEPVTVSWNSGALTSGVHTFPAVLQSSGLYSLSSVVTVPSSSLGTQTYICNVNHKPSNTKVDKKVEPKSCDKTHTCPPCPAPEAAGGPSVFLFPPKPKDTLMISRTPEVTCVVVDVSHEDPEVKFNWYVDGVEVHNAKTKPREEQYNSTYRVVSVLTVLHQDWLNGKEYKCKVSNKALGAPIEKTISKAKGQPREPQVYTLPPSREEMTKNQVSLTCLVKGFYPSDIAVEWESNGQPENNYKTTPPVLDSDGSFFLYSKLTVDKSRWQQGNVFSCSVMHEALHNHYTQKSLSLSPGEPKSSDKTHTPPPPPRTEVQLLESGGGLIQPGGSLRLSCAASGFTFSSFAMTWVRQAPGKGLEWVSTISGSGDNTYYADSVKGRFTISRDNSKNTLYLQMNSLRAEDTAVYFCAKEDTAVASDYYYNIDVWGQGTTVTVSS |
| – | – | – | 0.596 nM | 33200 MFI | PR002798 (bispecific antibody, human IgG1, kappa, L234A L235A, IgG-VH: PR001476 IgG + PR001774 VH, linker H1_15-RT, human IgG1 (L234A, L235A, P329G)) polypeptide chain 1: EIVMTQSPATLSVSPGERATLSCRASQSISSNLGWYQQKPGQAPRLLIYGASTRATGIPARFSGSGSGTEFTLTISSLQSEDFAVYYCQQYNSWPPLTFGGGTKVEIKRTVAAPSVFIFPPSDEQLKSGTASVVCLLNNFYPREAKVQWKVDNALQSGNSQESVTEQDSKDSTYSLSSTLTLSKADYEKHKVYACEVTHQGLSSPVTKSFNRGEC polypeptide chain 2: QVQLVESGGGVVQPGRSLRLSCAASGFTFRSFGMHWVRQAPGKGLEWVAVISYDGSNEYYADSVKGRFIISRDNSKDTLYLQMNSLRAGDTAVYYCAKGGGLRWYFAYWGQGTLVTVSSASTKGPSVFPLAPSSKSTSGGTAALGCLVKDYFPEPVTVSWNSGALTSGVHTFPAVLQSSGLYSLSSVVTVPSSSLGTQTYICNVNHKPSNTKVDKKVEPKSCDKTHTCPPCPAPEAAGGPSVFLFPPKPKDTLMISRTPEVTCVVVDVSHEDPEVKFNWYVDGVEVHNAKTKPREEQYNSTYRVVSVLTVLHQDWLNGKEYKCKVSNKALGAPIEKTISKAKGQPREPQVYTLPPSREEMTKNQVSLTCLVKGFYPSDIAVEWESNGQPENNYKTTPPVLDSDGSFFLYSKLTVDKSRWQQGNVFSCSVMHEALHNHYTQKSLSLSPGEPKSSDKTHTPPPPPRTEVQLVESGGGLVQPGGSLRLSCAASGFTFSSFAMTWVRQAPEKGLEWVSTISGSGDTTYYADSVKGRFTISRDSSKNTLYLQMNSLRAEDSAVYFCAKEATAMASDYYYGVDVWGQGTTVTVSS |
